In the supplement of paper PMC12217912:
The list shows a part of the results. Sequences were assembled here from the parent chain. Inactive controls read about 0.05.

B1: TEV protease; numbered along this chain (parent)
chain: MGESLFKGPRDYNPISSSICHLTNESDGHTTSLYGIGFGPFIITNKHLFRRNNGTLVVQSLHGVFKVKDTTTLQQHLVDGRDMIIIRMPKDFPPFPQKLKFREPQREERICLVTTNFQTKSMSSMVSDTSCTFPSGDGIFWKHWIQTKDGQCGSPLVSTRDGFIVGIHSASNFTNTNNYFTSVPKNFMELLTNQEAQQWVSGWRLNADSVLWGGHKVFMVKPEEPFQPVKEATQL

Variants of: B1
Test: raw area under fraction-flipped curve 0-4 h after induction (AUC4h, not background-subtracted), DNA-recorder readout of cleavage of the substrate (dimensionless); higher = more cleavage of the substrate by the protease variant
Conditions: temperature: 34 °C; time window: 0-4 h after rhamnose induction
Method: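 In vivo DNA recorder in E. coli TOP10(DE3) ΔrhaA at 34 °C. Each TEVp single-site mutant (parent TEVp 0) is paired with a single-site variant of the 7-mer TEVs (canonical ENLYFQ|S). The substrate sits between flexible linkers in a Bxb1-sfGFP-TEVs-SsrA fusion, so cleavage stabilises Bxb1 and speeds flipping of a recombination array, read by NGS. The value is the raw area under the fraction-flipped curve over 0-4 h after rhamnose induction (AUC4h), with ≥20 reads per time point. It is not background-subtracted; inactive controls average about 0.047.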
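Note: Bxb1 expression induced with 0.2% (w/v) L-rhamnose at OD600 near 0.5, cultures sampled hourly, flipped fraction per protease–substrate barcode pair counted by paired-end Illumina sequencing.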

| Variant | area with substrate ENLAFQS | area with substrate ENLCFQS | area with substrate ENLDFQS | area with substrate ENLEFQS | area with substrate ENLFFQS | area with substrate ENLKFQS | area with substrate ENLLFQS | area with substrate ENLMFQS | area with substrate ENLNFQS | area with substrate ENLPFQS | area with substrate ENLSFQS | area with substrate ENLGFQS | area with substrate ENLHFQS | area with substrate ENLIFQS | area with substrate ENLRFQS | area with substrate ENLWFQS | area with substrate ENLQFQS | area with substrate ENLVFQS | area with substrate ENLTFQS |
| --- | --- | --- | --- | --- | --- | --- | --- | --- | --- | --- | --- | --- | --- | --- | --- | --- | --- | --- | --- |
| MGESLFKGPRDYNPISSSICHLTNESDGHTTSLYGIGFGPFIITNKHLFRRNNGTLVVQSLHGVFKVKDTTTLQQHLVDGRDMIIIRMPKDFPPFPQKLKFREPQREERICLVTTNFQTKSMSSMVSDTSCTFPSGMGIFWKHWIQTKDGQCGSPLVSTRDGFIVGIHSASNFTNTNNYFTSVPKNFMELLTNQEAQQWVSGWRLNADSVLWGGHKVFMVKPEEPFQPVKEATQL [D137M] | 0.0587 | 0.0857 | 0.0572 | 0.0629 | 0.0507 | 0.0769 | 0.0648 | 0.0841 | 0.071 | 0.0542 | 0.0591 |  |  |  |  |  |  |  |  |
| MGESLFKGPRDYNPISSSICHLTNESDGHTTSLYGIGFGPFIITNKHLFRRNNGTLVVQSLHGVFKVKDTTTLQQHLVDGRDMIIIRMPKDFPPFPQKLKFREPQREERICLVTTNFQTKSMSSMVSDTSCTFPSGDIIFWKHWIQTKDGQCGSPLVSTRDGFIVGIHSASNFTNTNNYFTSVPKNFMELLTNQEAQQWVSGWRLNADSVLWGGHKVFMVKPEEPFQPVKEATQL [G138I] | 0.0405 |  | 0.0532 | 0.0584 | 0.0798 | 0.0676 |  |  | 0.059 |  |  |  |  |  |  |  |  |  |  |
| MGESLFKGPRDYNPISSSICHLTNESDGHTTSLYGIGFGPFIITNKHLFRRNNGTLVVQSLHGVFKVKDTTTLQQHLVDGRDMIIIRMPKDFPPFPQKLKFREPQREERICLVTTNFQTKSMSSMVSDTSCTFPSGDGKFWKHWIQTKDGQCGSPLVSTRDGFIVGIHSASNFTNTNNYFTSVPKNFMELLTNQEAQQWVSGWRLNADSVLWGGHKVFMVKPEEPFQPVKEATQL [I139K] | 0.0343 |  | 0.0601 | 0.0485 | 0.066 | 0.0657 | 0.0532 | 0.0844 | 0.0599 | 0.087 | 0.0644 | 0.0759 | 0.0789 | 0.0802 |  |  |  |  |  |
| MGESLFKGPRDYNPISSSICHLTNESDGHTTSLYGIGFGPFIITNKHLFRRNNGTLVVQSLHGVFKVKDTTTLQQHLVDGRDMIIIRMPKDFPPFPQKLKFREPQREERICLVTTNFQTKSMSSMVSDTSCTFPSGDGIFKKHWIQTKDGQCGSPLVSTRDGFIVGIHSASNFTNTNNYFTSVPKNFMELLTNQEAQQWVSGWRLNADSVLWGGHKVFMVKPEEPFQPVKEATQL [W141K] | 0.0513 | 0.0627 | 0.0574 |  | 0.0589 | 0.0567 | 0.0546 |  | 0.0718 |  |  | 0.0662 | 0.0471 |  | 0.0644 | 0.0531 |  |  |  |
| MGESLFKGPRDYNPISSSICHLTNESDGHTTSLYGIGFGPFIITNKHLFRRNNGTLVVQSLHGVFKVKDTTTLQQHLVDGRDMIIIRMPKDFPPFPQKLKFREPQREERICLVTTNFQTKSMSSMVSDTSCTFPSGDGIFLKHWIQTKDGQCGSPLVSTRDGFIVGIHSASNFTNTNNYFTSVPKNFMELLTNQEAQQWVSGWRLNADSVLWGGHKVFMVKPEEPFQPVKEATQL [W141L] | 0.0615 |  |  |  | 0.0521 | 0.0602 | 0.048 |  | 0.0581 |  |  | 0.0571 |  |  |  |  |  |  |  |
| MGESLFKGPRDYNPISSSICHLTNESDGHTTSLYGIGFGPFIITNKHLFRRNNGTLVVQSLHGVFKVKDTTTLQQHLVDGRDMIIIRMPKDFPPFPQKLKFREPQREERICLVTTNFQTKSMSSMVSDTSCTFPSGDGIFWKEWIQTKDGQCGSPLVSTRDGFIVGIHSASNFTNTNNYFTSVPKNFMELLTNQEAQQWVSGWRLNADSVLWGGHKVFMVKPEEPFQPVKEATQL [H143E] | 0.0651 | 0.0434 | 0.0414 |  | 0.0702 | 0.0648 | 0.0514 |  | 0.0585 | 0.0708 | 0.0576 |  | 0.0508 | 0.0391 | 0.0675 |  | 0.0669 | 0.0608 |  |
| MGESLFKGPRDYNPISSSICHLTNESDGHTTSLYGIGFGPFIITNKHLFRRNNGTLVVQSLHGVFKVKDTTTLQQHLVDGRDMIIIRMPKDFPPFPQKLKFREPQREERICLVTTNFQTKSMSSMVSDTSCTFPSGDGIFWKHEIQTKDGQCGSPLVSTRDGFIVGIHSASNFTNTNNYFTSVPKNFMELLTNQEAQQWVSGWRLNADSVLWGGHKVFMVKPEEPFQPVKEATQL [W144E] | 0.0646 | 0.0672 |  |  | 0.0756 | 0.0696 |  |  |  | 0.0512 | 0.0878 | 0.0633 | 0.0601 |  |  | 0.0591 | 0.0643 |  |  |
| MGESLFKGPRDYNPISSSICHLTNESDGHTTSLYGIGFGPFIITNKHLFRRNNGTLVVQSLHGVFKVKDTTTLQQHLVDGRDMIIIRMPKDFPPFPQKLKFREPQREERICLVTTNFQTKSMSSMVSDTSCTFPSGDGIFWKHWSQTKDGQCGSPLVSTRDGFIVGIHSASNFTNTNNYFTSVPKNFMELLTNQEAQQWVSGWRLNADSVLWGGHKVFMVKPEEPFQPVKEATQL [I145S] | 0.0567 | 0.0799 | 0.0626 | 0.0415 |  | 0.0806 | 0.0643 |  | 0.0593 | 0.0708 | 0.0234 |  |  | 0.104 | 0.0963 | 0.0924 | 0.108 | 0.0814 |  |
| MGESLFKGPRDYNPISSSICHLTNESDGHTTSLYGIGFGPFIITNKHLFRRNNGTLVVQSLHGVFKVKDTTTLQQHLVDGRDMIIIRMPKDFPPFPQKLKFREPQREERICLVTTNFQTKSMSSMVSDTSCTFPSGDGIFWKHWIETKDGQCGSPLVSTRDGFIVGIHSASNFTNTNNYFTSVPKNFMELLTNQEAQQWVSGWRLNADSVLWGGHKVFMVKPEEPFQPVKEATQL [Q146E] | 0.0788 | 0.0644 |  | 0.0707 | 0.0822 | 0.0744 | 0.0561 |  | 0.0678 | 0.0539 | 0.0575 |  | 0.0893 | 0.0761 |  | 0.0474 | 0.0731 | 0.0662 | 0.0633 |
| MGESLFKGPRDYNPISSSICHLTNESDGHTTSLYGIGFGPFIITNKHLFRRNNGTLVVQSLHGVFKVKDTTTLQQHLVDGRDMIIIRMPKDFPPFPQKLKFREPQREERICLVTTNFQTKSMSSMVSDTSCTFPSGDGIFWKHWIYTKDGQCGSPLVSTRDGFIVGIHSASNFTNTNNYFTSVPKNFMELLTNQEAQQWVSGWRLNADSVLWGGHKVFMVKPEEPFQPVKEATQL [Q146Y] | 0.0613 |  | 0.0512 |  | 0.0749 | 0.0921 | 0.0755 |  | 0.065 | 0.0715 | 0.0588 |  | 0.0671 | 0.0782 | 0.0622 | 0.0614 | 0.0599 |  | 0.0636 |
